Variants at the floor of the assay are shown more often than the library holds them.
B1: TPR 5TU (parent)
chain: GGAUCUUCUCGAUCUAACAAAAAAGACAAAUCUGCCACAAAGCUUGAGAGCAUCUUCGGAUGCAGAGGCGGCAGCCUUCGGUGGCGCGAUAGCGCCAACGUUCUCAACUAUGACACGCAAAACGCGUGCUCCGUUGAAUGGAGUUUAUCAUG

Variants of: B1
Test: polymerase ribozyme fitness, log enrichment relative to wild type (log ratio); higher = more active; in vitro selection for triplet polymerase activity
Outline: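 After PCR construction and transcription, each subunit's mutant library from a heterodimeric triplet polymerase ribozyme was annealed with a biotinylated primer, the partner subunit and triplets. Incubation was frozen, at −7 °C, and extended constructs were gel-excised, bound to streptavidin beads and amplified by RT-PCR, in one selection round done in triplicate. Fitness is the logarithm of a genotype's enrichment divided by that of the wild type, from inverse-variance-weighted replicate averages of Illumina-sequenced inputs and outputs. The base of the logarithm is 2, and genotypes needed ≥10 input reads and ≥1 read per output.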

GGAUCUUCUCGAUCUAAGAAAAAAGUCAAAUCUGCCACAAAGCUUGAGAGCAUGUUCGGAUGCAGAGGCGGCAGCCUUCCGUCGCGUGAUAGCGCCAACGUUCUCAUCUAUGACACGCAAAACGCGUGCUCCGUUGAAUGCAGUUUACCAUG [C18G A26U C54G G80C G83C C87U A107U G141C U148C] and GGAUCUUCUCGAUCUAAGAAAAAAGACCAAUCUGCCACAAAGCUUGAGAGCAUCUUCGGAUGCAGAGUCGGCAGCCUUCGGUGGCGCGAUAGCGCGAACGUUCUGAACUAUGAUACGCAAAACGCGUGCUCCGUUGAAUGAAGUUUAUCAUG [C18G A28C G68U C96G C105G C114U G141A] cannot be ordered by “polymerase ribozyme fitness (log ratio)” value: at most -4.2 for the first, at most -4.2 for the second.

GGAUCUUCUCGAUCUAAGAAAAAAGACGAAUCUGCCACAAAGCUUGCGAGAAUCUUCGGAUGCAGAGGCGGCAGCCUUCGGUGGCGCGAUAGUGCCAACGUUCUCAACUAUGACACGCAAAACGCGUGCUCCGUUGAAUGGAGUUUAUCAUG [C18G A28G A47C C51A C93U] and GGAUCUUCUCGAUCUAAGAAAAAAGACUAAUCUGCCACAAAGCUUGAAAGCAUCAUCGGAUGCAGAGGCGGCAGCCUUCGGGGGCGCGAUUGCGCCAACGUUCUCAACUAUGACACGCAAAACGCGUGCUCCGUUGCAUGGAGUUUAUCAUG [C18G A28U G48A U55A U82G A91U A137C] cannot be ordered by “polymerase ribozyme fitness (log ratio)” value: at most -4.2 for the first, at most -4.2 for the second.

GGAUCUUCUCGAUCUAAGAAAAAAGACACAUCUGACACAAAGCUUGAGAGCAUCUUCGGAUGCAGAGGCGGCAGCCUUCGGUGGCGCGUUAGCGCCAACGUUCUCAACUAUGACACGCAAAACGCGUACUCCGUUGAAUGGAGGUUAUCAUG [C18G A29C C35A A89U G128A U144G] and GGAUCUUCUCGAUCUAAGAAAAAAGACAAAUCUGCCGCAAAGCUUGAGAGCAUCUUCGGAUGCAGGGCCGGCAGCCUUCGGUGGCGCGAUAGAGCCAACGUUCUCAACUAUGACACGCAAAACGCGUACUCCGUUGAAUGGAGUUUAUCAUG [C18G A37G A66G G68C C93A G128A] cannot be ordered by “polymerase ribozyme fitness (log ratio)” value: at most -4.2 for the first, at most -4.2 for the second.

Going from GGAUCUUCUCGAUCUAAGAAAAAAGACAAAUCUGCCGCAAAGCUUGAGAGCAUCUUAAGAAGCAGAGGCGGCAGCCUUCGGUAGCGUGAUAGCGCCCACGUUCUCAACUAUGACGCGCAAAACGCGUGCUCCGUUGAAUGGAGUUUAUCAUG [C18G A37G C57A G58A U61A G83A C87U A97C A115G] to GGAUCUUCUCGAUCUAAGAAAAAAGACAAAUCUGCCACAUAGCUUGAGAGCAUCUUCGGAUGCAGAGGCGGCAGCCUUCGGUGGCGCGAUAGCGCCAACGUUCUCAACUAUGACACGCAAAACGCGUGCUCCGUUGAAUGGAGUUUAUCAUG [C18G A40U], the “polymerase ribozyme fitness (log ratio)” value rises from at most -4.2 to 0.0147.

GGAUCUUCUCGAUCUAAGAAAAAAGACAAAUCUGCCACAAAGCUUGAGCGCAUCUUCGGAUGCAGAGGCGGCAGCCUUCGAUGGCGCGAUAGCGCUAACGUUCUCAACUAUGACACGCAAAACGCGUGCUCCGUUGAAUGGAGUUUAUCAUG [C18G A49C G81A C96U] and GGAUCUUCUCGAUCUAAGAAAAAAGACAAAUCUGCCACAAAGCUUGAGAGCUUCUUCGGAUGCAGAGACGGCAGACUACGGUGGCGCGAUAACGCCAACGUUAUCAACUAUGACACGCAAACCGCGUGCUCCGAUGAAUGGAGUUUAUCAUG [C18G A52U G68A C75A U78A G92A C103A A122C U134A] cannot be ordered by “polymerase ribozyme fitness (log ratio)” value: at most -4.2 for the first, at most -4.2 for the second.

GGAUCUUCUCGAUCUAAGAAAAAAGACAAAUCUGCCACAAAGCUUGAGAGCAUCUUCGGAUGCCGAGGCGGCAGCCUUCGGGGGCGCGAUAGCGCCAACGUUCUCAACUAUGACACGCAAAACGCGUGCUCCGUUGGAUGGAGUUUAUCAUG [C18G A64C U82G A137G] and GGAUCUUCUCGAUCUAAGAAAAAAGACAAAUCUGCCACAAAGCUUGAGAGCAUCUUCGGAUGCAGGGGCGGCUGCCUUCGGUGGCGCGAAAGAGCCAACGUUCUCAACUAUGACACGCAAAACGCGUGCUCCGUUGAAUGGAGUUUAUCAUG [C18G A66G A73U U90A C93A] cannot be ordered by “polymerase ribozyme fitness (log ratio)” value: at most -4.2 for the first, at most -4.2 for the second.

First: GGAUCUUCUCGAUCUAAGAAAAAAGACAAAUCUGCCACAAAGCUUGAGAGCAUCUUCGGAUGCAGAGGCGGCAGCCUUCGGUGGCGCGAUAGCGCCAACGUUCUCAACUAUGGCACGCAAAACGCGUGCUCCGAUGAAUGGAGUUUAUCAUG [C18G A113G U134A]
Second: GGAUCUUCUCGAUCUAAGAAAAAAGAGAAAUCUGCCAUAAAGCUUGAGAGCAUCUUCGGAAGCCGAGGCGGCAGCCUUCGGUGGCGGGAUAGCGCCAACGUUCUCAACUAUGACACGCAAAACGCGUGCUCCGUUGAAUCGAGUGUAUCAUG [C18G C27G C38U U61A A64C C87G G140C U145G]
The “polymerase ribozyme fitness (log ratio)” value of the first is higher: -3.95 for the first, at most -4.2 for the second.

GGAUCUUCUCGAUCUAAGAAAAAAGAGAAAUCUGCCACAAAGCUAGAGAGCAUCUUCGGAUGCAGAGGCGGCAGCCUUCGGUGGCGCGAUAGCGCCAACGUUCUGGACUAUGACACGCAAAACGCGUGCUCCGUUGAAUGGAGUUUAUCAAG [C18G C27G U45A C105G A106G U151A] and GGAUCUUCUCGAUCUAAGAAAAAAGACAAAUGUGCCACAAAGCUUGAGAGCAUUUUCGGAUGCAGAGGCGGCAGCCUUCUGUGGCGCGAUAGCGCCAACGGUCUCAACUAUGACACGCAAAACGCGUGCUCCGUUGAAUGGAGUUUACCAUA [C18G C32G C54U G80U U101G U148C G152A] cannot be ordered by “polymerase ribozyme fitness (log ratio)” value: at most -4.2 for the first, at most -4.2 for the second.

Compared with GGAUCUUCUCGAUCUAAGAAAAAAGACAAAUCUGCCAAAAAGCUUGAGAGCAUCUUCGGAUGCAGAGGCGGCAGCCUUCGGUGGCGCGAUAGUGCCAACGUUCUUAACUAUGCCACGCAAAACGCGUGCUCCGUUGAAUGGAGUUUAUCAUG [C18G C38A C93U C105U A113C], GGAUCUUCUCGAUCUAAGAAAAAAGACAAAUCUGCCAGAAAGCUUGAGAGCAUCUUCGGAUGCAGAGGCGGCAGCCUUCGCUGGCGCGAUAGGGCCAACGUUCUCAACUAUGACACGCAAAACGCGUGCUCCGUUGAAUGGAGUUUAUCAUG [C18G C38G G81C C93G] is lower in “polymerase ribozyme fitness (log ratio)” value: -4.17 for the first, at most -4.2 for the second.

In the case of GGAUCUUCUCGAUCUAAGAAAAAAGACAAAUCUGCCACAAAGCUUGAGAGAAUCUUCGGAUGCAGAGGCGUCAGCCUUCGGUGGCUCGAUAGCGCCAACGUUCUCAACUAUGUCACGCAAAACGCGUGCUCCGUUGAAUGGCGAUUAUCAUG [C18G C51A G71U G86U A113U A142C U144A], the “polymerase ribozyme fitness (log ratio)” value is reported as at most -4.2.
